Measured values published in the supplement of paper PMC11876631.
± gives the standard deviation of the averaged measurements. Laboratory Escherichia coli strains with one amino-acid change in an essential protein, pooled on minimal glucose agar with carbenicillin or gentamicin at twice the control MIC (plus kanamycin and chloramphenicol for the plasmids), 48 h. Fold change of barcode share against drug-free plates; higher = less susceptible. Active = above 20 in both replicates (the paper's putatively resistant). '<' = one read or none on drug, '>' = one read or none on a drug-free plate. Shares are relative, so most strains fall below 1 when a few take over. Listed are strains with at least 15 reads on both drug-free plates, and hits; most hits rest on fewer reference reads. Replicate rank correlation about 0.5. Edits are read from barcodes.

B1: lptF; a variant is named by its letters at X, in order (parent)
chain: MIIIRYLVRETLKSQLAILFILLLIFFCQKLVRILGAAVDGDIPANLVLSLLGLGVPEMAQLILPLSLFLGXLMTLGKLYTESEITVMHACGLSKAVLVKAAMILAVFTAIVAAVNVMWAGPWSSRHQDEVLAEAKANPGMAALAQGQFQQATNGSSVLFIESVDGSDFKDVFLAQIRPKGNARPSVVVADSGHLTQLRDGSQVVTLNQGTRFEGTALLRDFRITDFQDYQAIIGHQAVALDPNDTDQMDMRTLWNTDTDRARAELNWRITLVFTXFXXALXXXPLSVVNPRQGRVLSMLPAMLLYLLFFLIQTSLKSNGGKGKLDPTLWMWTVNLIYLALAIVLNLWDTVPVRRLRASFSRKGAV
B2: bioB; numbered along this chain (parent)
chain: MAHRPRWTLSQVTELFEKPLLDLLFEAQQVHRQHFDPRQVQVSTLLSIKTGACPEDCKYCPQSSRYKTGLEAERLMEVEQVLESARKAKAAGSTRFCMGAAWKNPHERDMPYLEQMVQGVKAMGLEACMTLGTLSESQAQRLANAGLDYYNHNLDTSPEFYGNIITTRTYQERLDTLEKVRDAGIKVCSGGIVGLGETVKDRAGLLLQLANLPTPPESVPINMLVKVKGTPLADNDDVDAFDFIRTIAVARIMMPTSYVRLSAGREQMNEQTQAMCFMAGANSIFYGCKLLTTPNPEEDKDLQLFRKLGLNPQQTAVLAGDNEQQQRLEQALMTPDTDEYYNAAAL

Variants of: B1
Assay: barcode share on antibiotic plates over drug-free plates; higher = less susceptible
Conditions: with Escherichia coli (laboratory strain); antibiotic: gentamicin; 2× MIC (MIC 0.45 µg/mL)
Method: (§1)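 A pool of E. coli strains, each edited to carry one amino-acid change in an essential protein, was grown for 48 h on minimal glucose agar with or without antibiotic; strain barcodes were sequenced; mean of two replicates.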

| Variant | fold change of barcode share |
| --- | --- |
| LVMMMVD | < 0.00928 |
| LVMMMVW | < 0.014 |
| LVQMMVV | < 0.00404 |
| LVMMWVV | < 0.0105 |
| LVAMMVV | 0.0172 ± 0.0097 |
| WVMMMVV | < 0.0171 |
| LVMMMPV | < 0.0108 |

Same assay, conditions: with Escherichia coli (laboratory strain); antibiotic: carbenicillin; 2× MIC (3.1 µg/mL)

| Variant | fold change of barcode share |
| --- | --- |
| LVMMMVW | 0.26 ± 0.012 |
| LVQMMVV | 0.14 ± 0.015 |
| LVMMDVV | 0.213 ± 0.17 |
| LVMMWVV | 0.239 ± 0.14 |
| LVAMMVV | 1.3 ± 1.7 |
| WVMMMVV | 0.305 ± 0.23 |
| LVMMMPV | 0.252 ± 0.18 |

Variants of: B2
Assay: as above
Conditions: with Escherichia coli (laboratory strain); antibiotic: carbenicillin; 2× MIC (3.1 µg/mL)
Method: as §1

| Variant | fold change of barcode share |
| --- | --- |
| I247P | 0.984 ± 0.32 |
| I247W | 1.305 ± 0.0031 |
| I247D | 1.32 ± 0.11 |
| I247Q | 1.22 ± 0.48 |
| I247A | 0.3828 ± 0.0032 |
| V249P | 1.32 ± 0.15 |
| V249W | 0.38916 ± 6.4e-05 |
| V249A | 0.334 ± 0.16 |
| V249Q | 0.404 ± 0.021 |
| V249D | 1.26 ± 0.39 |
| M116A | 0.625 ± 0.16 |
| F305D | 1.19 ± 0.038 |
| F305Q | 0.57 ± 0.49 |
| F305P | 1.32 ± 0.35 |
| F305A | 0.536 ± 0.03 |
| F305W | 0.415 ± 0.03 |
| V193A | 0.308 ± 0.15 |
| V193D | 0.394 ± 0.025 |
| V193Q | 0.61 ± 0.4 |
| V193P | 0.519 ± 0.065 |
| V193W | 0.296 ± 0.051 |
| M98P | 1.3 ± 0.27 |

Same assay, conditions: with Escherichia coli (laboratory strain); antibiotic: gentamicin; 2× MIC (MIC 0.45 µg/mL)

| Variant | fold change of barcode share |
| --- | --- |
| I247P | 0.0574 ± 0.063 |
| I247W | 0.015 ± 0.012 |
| I247D | 0.0384 ± 0.007 |
| I247Q | 0.0393 ± 0.0086 |
| I247A | 0.00474 ± 0.0016 |
| V249P | < 0.00749 |
| V249A | 0.00538 ± 0.0021 |
| V249Q | 0.0137 ± 0.012 |
| V249D | 0.0262 ± 0.014 |
| M116A | < 0.00825 |
| F305Q | 0.0057 ± 0.0029 |
| F305P | 0.0201 ± 0.0089 |
| F305A | 0.0125 ± 0.0058 |
| F305W | 0.0107 ± 0.0095 |
| V193D | < 0.0151 |
| V193Q | 0.0194 ± 0.015 |
| V193P | < 0.0211 |
| V193W | 0.139 ± 0.15 |
| M98P | 0.0277 ± 0.018 |
